Measured values taken from article PMC7035337.
Results are given in words; binding and its absence hold for the method and conditions named.

Amino acid sequences for entries named in this document (tags omitted). A change or cut given only in a name is not applied to a line headed by its entry. Chains listed by the source or under a name are the forms on record and can include a tag or linker. Residues count along the entry.
vimentin^ROD (residues T99–I249) D176K (P08670, form named): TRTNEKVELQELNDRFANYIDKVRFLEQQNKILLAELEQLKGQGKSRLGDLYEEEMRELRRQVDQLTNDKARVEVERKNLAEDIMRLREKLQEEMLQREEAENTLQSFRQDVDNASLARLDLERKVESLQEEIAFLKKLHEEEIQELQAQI
vimentin^ROD (residues T99–I249) E187K (P08670, form named): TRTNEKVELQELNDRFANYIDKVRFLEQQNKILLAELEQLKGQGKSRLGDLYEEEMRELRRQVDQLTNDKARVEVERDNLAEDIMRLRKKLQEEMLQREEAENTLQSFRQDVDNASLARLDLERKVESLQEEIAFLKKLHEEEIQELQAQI

Key:
[1] = biological target: vimentin^ROD (residues T99–I249) D176K (human) (UniProt P08670); test: MST; 50 nM NT647-labelled vimentin^ROD, linker titrated 780 nM to 800 uM; 150 mM NaCl, 20 mM HEPES pH 7.5, 0.015% Tween 20; 25 C; one-site binding model; both purified
[2] = biological target: vimentin^ROD (residues T99–I249) E187K (human) (UniProt P08670); test: as above

- binding [1]: no binding (tested: 800 μM)
- binding [2]: no binding (tested: 800 μM)
B1: periplakin linker domain (K1646–K1756), wild-type (domain or fragment, UniProt O60437 1646-1756)
chain: KREQRENHLRRSIVVIHPDTGRELSPEEAHRAGLIDWNMFVKLRSQECDWEEISVKGPNGESSVIHDRKSGKKFSIEEALQSGRLTPAQYDRYVNKDMSIQELAVLVSGQK
